# PMC9911399, “Two distinct binding modes provide the RNA-binding protein RbFox with extraordinary sequence specificity”
# Numbering of substitutions follows the chain as printed; changes in the protein carry UniProt numbers. The list shows a part of the results.
# T1: RBFOX1 RRM RbFoxmut (Fox-RRM*) (Homo sapiens, UniProt Q9NWB1 109-208, R118D;E147R;N151S;E152T)
# T1 sequence: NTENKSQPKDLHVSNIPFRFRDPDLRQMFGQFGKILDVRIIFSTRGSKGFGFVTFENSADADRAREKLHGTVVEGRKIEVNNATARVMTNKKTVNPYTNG
# B1: GUGUAUC (DNA:RNA)
# RNA: GGGAGACCGGAAUUCAGAUUGUCCGUGUAUCUUAAAUCCCGUCGUAGCCACCA
# DNA 1: CAATCTGAATTCCGGTCTCCC
# DNA 2: TGGTGGCTACGACGGGATT
# B2: UGGCUUC (DNA:RNA)
# RNA: B1 RNA with G25U, U26G, U28C, A29U
# DNA 1: CAATCTGAATTCCGGTCTCCC
# DNA 2: TGGTGGCTACGACGGGATT
# B3: UUGGGGU (DNA:RNA)
# RNA: B1 RNA with G25U, U28G, A29G, U30G, C31U
# DNA 1: CAATCTGAATTCCGGTCTCCC
# DNA 2: TGGTGGCTACGACGGGATT
# B4: CGUUUGG (DNA:RNA)
# RNA: B1 RNA with G25C, U26G, G27U, A29U, U30G, C31G
# DNA 1: CAATCTGAATTCCGGTCTCCC
# DNA 2: TGGTGGCTACGACGGGATT
# B5: UAACAAA (DNA:RNA)
# RNA: B1 RNA with G25U, U26A, G27A, U28C, U30A, C31A
# DNA 1: CAATCTGAATTCCGGTCTCCC
# DNA 2: TGGTGGCTACGACGGGATT
# B6: CUGUAGG (DNA:RNA)
# RNA: B1 RNA with G25C, U30G, C31G
# DNA 1: CAATCTGAATTCCGGTCTCCC
# DNA 2: TGGTGGCTACGACGGGATT
# B7: AUCUAUA (DNA:RNA)
# RNA: B1 RNA with G25A, G27C, C31A
# DNA 1: CAATCTGAATTCCGGTCTCCC
# DNA 2: TGGTGGCTACGACGGGATT
# B8: AGUUGAG (DNA:RNA)
# RNA: B1 RNA with G25A, U26G, G27U, A29G, U30A, C31G
# DNA 1: CAATCTGAATTCCGGTCTCCC
# DNA 2: TGGTGGCTACGACGGGATT
# B9: UGGCUGA (DNA:RNA)
# RNA: B1 RNA with G25U, U26G, U28C, A29U, U30G, C31A
# DNA 1: CAATCTGAATTCCGGTCTCCC
# DNA 2: TGGTGGCTACGACGGGATT
# B10: ACUUCUA (DNA:RNA)
# RNA: B1 RNA with G25A, U26C, G27U, A29C, C31A
# DNA 1: CAATCTGAATTCCGGTCTCCC
# DNA 2: TGGTGGCTACGACGGGATT
# B11: AUAUAUA (DNA:RNA)
# RNA: B1 RNA with G25A, G27A, C31A
# DNA 1: CAATCTGAATTCCGGTCTCCC
# DNA 2: TGGTGGCTACGACGGGATT
# B12: UGACCGU (DNA:RNA)
# RNA: GGGAGACCGGAAUUCAGAUUGUCCUGACCGUUUAAAUCCCGUCGUAGCCACCA
# DNA 1: CAATCTGAATTCCGGTCTCCC
# DNA 2: TGGTGGCTACGACGGGATT
# B13: GACAAGU (DNA:RNA)
# RNA: B1 RNA with U26A, G27C, U28A, U30G, C31U
# DNA 1: CAATCTGAATTCCGGTCTCCC
# DNA 2: TGGTGGCTACGACGGGATT
# B14: GAUCACU (DNA:RNA)
# RNA: B1 RNA with U26A, G27U, U28C, U30C, C31U
# DNA 1: CAATCTGAATTCCGGTCTCCC
# DNA 2: TGGTGGCTACGACGGGATT
# B15: GGGUUAA (DNA:RNA)
# RNA: B1 RNA with U26G, A29U, U30A, C31A
# DNA 1: CAATCTGAATTCCGGTCTCCC
# DNA 2: TGGTGGCTACGACGGGATT
# B16: GGUCGCA (DNA:RNA)
# RNA: B12 RNA with U25G, A27U, C29G, G30C, U31A
# DNA 1: CAATCTGAATTCCGGTCTCCC
# DNA 2: TGGTGGCTACGACGGGATT
# B17: UCAGUAU (DNA:RNA)
# RNA: B12 RNA with G26C, C28G, C29U, G30A
# DNA 1: CAATCTGAATTCCGGTCTCCC
# DNA 2: TGGTGGCTACGACGGGATT
# B18: UAACAUG (DNA:RNA)
# RNA: B12 RNA with G26A, C29A, G30U, U31G
# DNA 1: CAATCTGAATTCCGGTCTCCC
# DNA 2: TGGTGGCTACGACGGGATT
# B19: UUGGGGA (DNA:RNA)
# RNA: B1 RNA with G25U, U28G, A29G, U30G, C31A
# DNA 1: CAATCTGAATTCCGGTCTCCC
# DNA 2: TGGTGGCTACGACGGGATT
# B20: UCCAACA (DNA:RNA)
# RNA: B1 RNA with G25U, U26C, G27C, U28A, U30C, C31A
# DNA 1: CAATCTGAATTCCGGTCTCCC
# DNA 2: TGGTGGCTACGACGGGATT
# B21: AGCAGUU (DNA:RNA)
# RNA: B12 RNA with U25A, A27C, C28A, C29G, G30U
# DNA 1: CAATCTGAATTCCGGTCTCCC
# DNA 2: TGGTGGCTACGACGGGATT
# B22: UUAUCAG (DNA:RNA)
# RNA: B12 RNA with G26U, C28U, G30A, U31G
# DNA 1: CAATCTGAATTCCGGTCTCCC
# DNA 2: TGGTGGCTACGACGGGATT
# B23: GUACAAU (DNA:RNA)
# RNA: B1 RNA with G27A, U28C, U30A, C31U
# DNA 1: CAATCTGAATTCCGGTCTCCC
# DNA 2: TGGTGGCTACGACGGGATT
# B24: CUGACCG (DNA:RNA)
# RNA: B1 RNA with G25C, U28A, A29C, U30C, C31G
# DNA 1: CAATCTGAATTCCGGTCTCCC
# DNA 2: TGGTGGCTACGACGGGATT
# B25: GCCGUGC (DNA:RNA)
# RNA: B1 RNA with U26C, G27C, U28G, A29U, U30G
# DNA 1: CAATCTGAATTCCGGTCTCCC
# DNA 2: TGGTGGCTACGACGGGATT
# B26: CUUGAUU (DNA:RNA)
# RNA: B1 RNA with G25C, G27U, U28G, C31U
# DNA 1: CAATCTGAATTCCGGTCTCCC
# DNA 2: TGGTGGCTACGACGGGATT
# B27: GUCUAGU (DNA:RNA)
# RNA: B1 RNA with G27C, U30G, C31U
# DNA 1: CAATCTGAATTCCGGTCTCCC
# DNA 2: TGGTGGCTACGACGGGATT
# B28: UGUUCGG (DNA:RNA)
# RNA: B12 RNA with A27U, C28U, U31G
# DNA 1: CAATCTGAATTCCGGTCTCCC
# DNA 2: TGGTGGCTACGACGGGATT
# B29: AACCACA (DNA:RNA)
# RNA: B1 RNA with G25A, U26A, G27C, U28C, U30C, C31A
# DNA 1: CAATCTGAATTCCGGTCTCCC
# DNA 2: TGGTGGCTACGACGGGATT
# B30: CCAUUAA (DNA:RNA)
# RNA: B1 RNA with G25C, U26C, G27A, A29U, U30A, C31A
# DNA 1: CAATCTGAATTCCGGTCTCCC
# DNA 2: TGGTGGCTACGACGGGATT
# B31: AGUCAUG (DNA:RNA)
# RNA: B1 RNA with G25A, U26G, G27U, U28C, C31G
# DNA 1: CAATCTGAATTCCGGTCTCCC
# DNA 2: TGGTGGCTACGACGGGATT
# Biological target: T1, RBFOX1 RRM RbFoxmut (Fox-RRM*)
# Assay: EMSA; HiTS-Eq, 1 nM pool, 10 min; buffer printed only for the single-RNA assays: 10 mM Tris pH 7.5, 150 mM NaCl, 3.4 mM EDTA, 0.001% NP-40, 30 C
# Conditions: tags: His6 N-terminal (pET28a); label: 5' 32P
# How it was run: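 Relative association constants, normalised to the cognate motif, were derived by comparing read counts of each RNA species with those of the control reaction. The RNA sequenced was the free fraction, separated by 8% native PAGE after a 10 min equilibration in 50 µL of 1 nM 5′-radiolabelled RNA (7 randomized nucleotides) with increasing concentrations of purified wild-type or mutant RbFox RRM.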
row,Binder,binding signal
1,B1,0.424 KA relative to UGCAUGU
2,B2,0.194 KA relative to UGCAUGU
3,B3,0.122 KA relative to UGCAUGU
4,B4,0.137 KA relative to UGCAUGU
5,B5,0.0629 KA relative to UGCAUGU
6,B6,0.124 KA relative to UGCAUGU
7,B7,0.138 KA relative to UGCAUGU
8,B8,0.133 KA relative to UGCAUGU
9,B9,0.274 KA relative to UGCAUGU
10,B10,0.108 KA relative to UGCAUGU
11,B11,0.19 KA relative to UGCAUGU
12,B12,0.105 KA relative to UGCAUGU
13,B13,0.052 KA relative to UGCAUGU
14,B14,0.0566 KA relative to UGCAUGU
15,B15,0.0954 KA relative to UGCAUGU
16,B16,0.141 KA relative to UGCAUGU

row,Binder,binding signal
1,B17,0.116 KA relative to UGCAUGU
2,B18,0.0703 KA relative to UGCAUGU
3,B19,0.0745 KA relative to UGCAUGU
4,B20,0.0867 KA relative to UGCAUGU
5,B21,0.0774 KA relative to UGCAUGU
6,B22,0.0956 KA relative to UGCAUGU
7,B23,0.0653 KA relative to UGCAUGU
8,B24,0.125 KA relative to UGCAUGU
9,B25,0.114 KA relative to UGCAUGU
10,B26,0.0829 KA relative to UGCAUGU
11,B27,0.138 KA relative to UGCAUGU
12,B28,0.154 KA relative to UGCAUGU
13,B29,0.078 KA relative to UGCAUGU
14,B30,0.12 KA relative to UGCAUGU
15,B31,0.167 KA relative to UGCAUGU
